From ChEMBL document CHEMBL4339217, “Discovery of Pyrido[3',2':5,6]thiopyrano[4,3-d]pyrimidine-Based Antiproliferative Multikinase Inhibitors” (ACS Med Chem Lett, 2019)

Columns and labels:
[1] = tested on: HUVEC; test: Growth inhibition of HUVEC incubated for 72 hrs by trypan blue assay; type: functional; conditions: Homo sapiens
[2] = tested on: HeLa; test: Growth inhibition of human HeLa cells incubated for 72 hrs by trypan blue assay; type: functional
[3] = tested on: A-431; test: Growth inhibition of human A431 cells incubated for 72 hrs by trypan blue assay; type: functional; conditions: A-431, 72 h
[4] = tested on: MSTO-211H; test: Growth inhibition of human MSTO-211H cells incubated for 72 hrs by trypan blue assay; type: functional
[5] = molecular target: Vascular endothelial growth factor receptor 2 (Homo sapiens, UniProt P35968); test: Inhibition of recombinant human KDR incubated for 1 hr using Tyr1 substrate by fluorimetry based Z'-LYTE-Tyr1 Peptide assay
[6] = molecular target: Epidermal growth factor receptor (Homo sapiens) (UniProt P00533); test: Inhibition of recombinant human EGFR at 10 uM using Ulight-CAGAGAIETDKEYYTVKD substrate incubated for 15 mins by LANCE assay relative to untreated control
[7] = molecular target: T1, Aurora kinase A (Homo sapiens) (UniProt O14965); test: Inhibition of recombinant human aurora A at 10 uM using Ulight-RRRSLLE substrate incubated for 15 mins by LANCE assay relative to untreated control
T1 sequence (whole entry): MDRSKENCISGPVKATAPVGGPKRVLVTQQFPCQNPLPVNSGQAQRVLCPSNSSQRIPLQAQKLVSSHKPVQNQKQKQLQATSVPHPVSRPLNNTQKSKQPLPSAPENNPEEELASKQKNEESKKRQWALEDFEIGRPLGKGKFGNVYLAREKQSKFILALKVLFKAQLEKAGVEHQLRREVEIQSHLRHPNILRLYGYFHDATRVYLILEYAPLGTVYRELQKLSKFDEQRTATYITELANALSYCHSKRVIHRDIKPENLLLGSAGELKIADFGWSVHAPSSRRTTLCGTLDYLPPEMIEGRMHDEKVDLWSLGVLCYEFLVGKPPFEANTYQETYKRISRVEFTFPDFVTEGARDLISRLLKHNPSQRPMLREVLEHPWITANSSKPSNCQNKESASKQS

[8] = molecular target: Cyclin-dependent kinase 1/cyclin B1 (Homo sapiens) (UniProt P06493+P14635); test: Inhibition of recombinant human CDK1/cyclin B at 10 uM using Ulight-CFFKNIVTPRTPPPSQGK-amide substrate incubated for 15 mins by LANCE assay relative to untreated control; type: protein-complex assay
[9] = molecular target: Platelet-derived growth factor receptor beta (Homo sapiens) (UniProt P09619); test: Inhibition of recombinant human PDGFRB at 10 uM using Ulight-Poly GAT[EAY(1:1:1)]n substrate incubated for 30 mins by LANCE assay relative to untreated control
[10] = molecular target: Proto-oncogene tyrosine-protein kinase Src (Homo sapiens) (UniProt P12931); test: Inhibition of recombinant human SRC at 10 uM using Ulight-Poly GAT[EAY(1:1:1)]n substrate incubated for 30 mins by LANCE assay relative to untreated control
UniProt P12931, sequence (P12931 whole entry, looked up): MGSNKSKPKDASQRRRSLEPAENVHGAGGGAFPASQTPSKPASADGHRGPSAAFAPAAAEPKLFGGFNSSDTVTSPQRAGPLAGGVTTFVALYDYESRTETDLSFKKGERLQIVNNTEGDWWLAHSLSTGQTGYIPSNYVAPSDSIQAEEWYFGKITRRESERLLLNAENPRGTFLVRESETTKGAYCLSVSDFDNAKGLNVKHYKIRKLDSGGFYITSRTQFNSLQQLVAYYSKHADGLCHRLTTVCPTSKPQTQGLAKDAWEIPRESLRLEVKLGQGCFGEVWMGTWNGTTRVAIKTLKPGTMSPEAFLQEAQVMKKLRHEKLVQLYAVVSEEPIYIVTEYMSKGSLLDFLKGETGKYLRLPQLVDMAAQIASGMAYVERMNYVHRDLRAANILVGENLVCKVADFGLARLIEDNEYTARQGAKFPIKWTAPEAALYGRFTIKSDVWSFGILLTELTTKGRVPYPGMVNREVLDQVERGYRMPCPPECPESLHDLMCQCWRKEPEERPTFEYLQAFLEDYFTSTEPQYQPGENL

UniProt P00533, sequence (P00533 whole entry): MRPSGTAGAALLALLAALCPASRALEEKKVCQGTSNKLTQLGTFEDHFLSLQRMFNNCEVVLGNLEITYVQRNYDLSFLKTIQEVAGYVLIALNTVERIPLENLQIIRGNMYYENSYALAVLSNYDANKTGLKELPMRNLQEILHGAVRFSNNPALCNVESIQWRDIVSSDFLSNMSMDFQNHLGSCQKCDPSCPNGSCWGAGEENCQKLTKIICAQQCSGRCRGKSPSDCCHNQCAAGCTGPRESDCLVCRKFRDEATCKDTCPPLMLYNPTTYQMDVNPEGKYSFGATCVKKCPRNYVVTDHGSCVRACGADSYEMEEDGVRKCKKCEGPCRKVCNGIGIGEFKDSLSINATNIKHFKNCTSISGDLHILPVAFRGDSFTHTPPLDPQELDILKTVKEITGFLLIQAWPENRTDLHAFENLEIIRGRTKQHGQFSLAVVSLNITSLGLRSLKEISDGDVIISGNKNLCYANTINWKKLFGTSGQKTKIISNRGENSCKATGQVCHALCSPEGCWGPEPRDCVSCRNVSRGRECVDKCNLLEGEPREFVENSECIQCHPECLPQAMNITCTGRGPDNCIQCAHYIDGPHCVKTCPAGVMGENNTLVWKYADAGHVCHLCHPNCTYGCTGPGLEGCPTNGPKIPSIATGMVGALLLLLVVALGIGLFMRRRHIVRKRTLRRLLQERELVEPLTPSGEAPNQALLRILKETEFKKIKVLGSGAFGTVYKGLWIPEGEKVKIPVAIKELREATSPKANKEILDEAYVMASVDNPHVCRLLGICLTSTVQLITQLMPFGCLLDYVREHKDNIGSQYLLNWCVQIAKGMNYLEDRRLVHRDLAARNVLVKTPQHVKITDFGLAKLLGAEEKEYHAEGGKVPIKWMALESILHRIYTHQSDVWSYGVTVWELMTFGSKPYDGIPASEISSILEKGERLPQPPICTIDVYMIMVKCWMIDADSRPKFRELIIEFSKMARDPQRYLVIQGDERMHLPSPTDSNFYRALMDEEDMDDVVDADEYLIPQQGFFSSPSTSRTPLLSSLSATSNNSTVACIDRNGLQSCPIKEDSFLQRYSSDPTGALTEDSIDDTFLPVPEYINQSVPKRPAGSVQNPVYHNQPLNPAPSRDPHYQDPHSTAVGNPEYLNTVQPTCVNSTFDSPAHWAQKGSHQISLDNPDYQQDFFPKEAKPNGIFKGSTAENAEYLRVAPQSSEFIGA
UniProt P06493, sequence (P06493 whole entry, looked up): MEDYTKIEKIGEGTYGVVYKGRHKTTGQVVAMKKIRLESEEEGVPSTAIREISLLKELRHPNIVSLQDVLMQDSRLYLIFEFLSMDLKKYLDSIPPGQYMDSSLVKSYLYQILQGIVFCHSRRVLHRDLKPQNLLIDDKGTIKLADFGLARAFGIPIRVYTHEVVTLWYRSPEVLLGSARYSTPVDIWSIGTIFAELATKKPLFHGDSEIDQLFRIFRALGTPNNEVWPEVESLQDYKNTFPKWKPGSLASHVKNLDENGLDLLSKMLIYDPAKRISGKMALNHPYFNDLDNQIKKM
UniProt P06493, sequence (P14635 whole entry, looked up, further chain): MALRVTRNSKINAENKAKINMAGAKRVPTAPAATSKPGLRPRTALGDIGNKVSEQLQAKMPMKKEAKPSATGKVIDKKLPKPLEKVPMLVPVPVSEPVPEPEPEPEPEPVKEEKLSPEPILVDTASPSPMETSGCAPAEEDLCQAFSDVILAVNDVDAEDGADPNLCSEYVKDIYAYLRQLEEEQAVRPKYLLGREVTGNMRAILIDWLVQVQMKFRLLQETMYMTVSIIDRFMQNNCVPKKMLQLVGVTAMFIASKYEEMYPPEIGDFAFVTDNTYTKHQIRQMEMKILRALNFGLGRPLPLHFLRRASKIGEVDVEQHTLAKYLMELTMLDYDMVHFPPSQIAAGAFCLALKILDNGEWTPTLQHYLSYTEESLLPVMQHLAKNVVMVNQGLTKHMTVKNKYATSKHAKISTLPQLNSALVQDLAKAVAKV
UniProt P09619, sequence (P09619 whole entry): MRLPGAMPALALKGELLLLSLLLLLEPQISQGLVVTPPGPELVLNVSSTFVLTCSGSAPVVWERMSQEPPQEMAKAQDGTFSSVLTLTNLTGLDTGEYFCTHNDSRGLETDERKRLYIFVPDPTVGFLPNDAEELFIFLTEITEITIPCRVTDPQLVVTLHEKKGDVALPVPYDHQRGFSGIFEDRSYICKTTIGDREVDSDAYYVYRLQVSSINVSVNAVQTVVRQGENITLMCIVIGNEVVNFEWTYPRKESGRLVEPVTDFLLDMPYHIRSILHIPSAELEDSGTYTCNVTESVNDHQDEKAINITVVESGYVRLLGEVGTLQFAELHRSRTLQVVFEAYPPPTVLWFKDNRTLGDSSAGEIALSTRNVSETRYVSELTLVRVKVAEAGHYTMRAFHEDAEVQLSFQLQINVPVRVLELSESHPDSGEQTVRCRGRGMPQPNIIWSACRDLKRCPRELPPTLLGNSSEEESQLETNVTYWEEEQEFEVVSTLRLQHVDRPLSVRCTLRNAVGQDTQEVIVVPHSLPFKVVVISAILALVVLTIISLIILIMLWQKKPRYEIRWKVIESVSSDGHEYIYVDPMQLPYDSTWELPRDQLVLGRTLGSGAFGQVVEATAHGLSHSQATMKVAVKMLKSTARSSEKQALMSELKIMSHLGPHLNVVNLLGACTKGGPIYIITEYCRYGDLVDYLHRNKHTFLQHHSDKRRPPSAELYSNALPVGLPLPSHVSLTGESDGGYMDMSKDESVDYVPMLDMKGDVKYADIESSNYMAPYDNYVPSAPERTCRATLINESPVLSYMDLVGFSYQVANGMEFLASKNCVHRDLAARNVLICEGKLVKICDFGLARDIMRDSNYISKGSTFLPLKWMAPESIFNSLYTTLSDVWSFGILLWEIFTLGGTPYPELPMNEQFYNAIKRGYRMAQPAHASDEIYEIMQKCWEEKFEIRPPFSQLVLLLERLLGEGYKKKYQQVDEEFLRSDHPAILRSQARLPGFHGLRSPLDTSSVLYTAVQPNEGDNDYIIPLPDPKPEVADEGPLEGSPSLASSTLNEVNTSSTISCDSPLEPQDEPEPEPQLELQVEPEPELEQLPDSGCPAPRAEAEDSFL
UniProt P35968, sequence (P35968 whole entry): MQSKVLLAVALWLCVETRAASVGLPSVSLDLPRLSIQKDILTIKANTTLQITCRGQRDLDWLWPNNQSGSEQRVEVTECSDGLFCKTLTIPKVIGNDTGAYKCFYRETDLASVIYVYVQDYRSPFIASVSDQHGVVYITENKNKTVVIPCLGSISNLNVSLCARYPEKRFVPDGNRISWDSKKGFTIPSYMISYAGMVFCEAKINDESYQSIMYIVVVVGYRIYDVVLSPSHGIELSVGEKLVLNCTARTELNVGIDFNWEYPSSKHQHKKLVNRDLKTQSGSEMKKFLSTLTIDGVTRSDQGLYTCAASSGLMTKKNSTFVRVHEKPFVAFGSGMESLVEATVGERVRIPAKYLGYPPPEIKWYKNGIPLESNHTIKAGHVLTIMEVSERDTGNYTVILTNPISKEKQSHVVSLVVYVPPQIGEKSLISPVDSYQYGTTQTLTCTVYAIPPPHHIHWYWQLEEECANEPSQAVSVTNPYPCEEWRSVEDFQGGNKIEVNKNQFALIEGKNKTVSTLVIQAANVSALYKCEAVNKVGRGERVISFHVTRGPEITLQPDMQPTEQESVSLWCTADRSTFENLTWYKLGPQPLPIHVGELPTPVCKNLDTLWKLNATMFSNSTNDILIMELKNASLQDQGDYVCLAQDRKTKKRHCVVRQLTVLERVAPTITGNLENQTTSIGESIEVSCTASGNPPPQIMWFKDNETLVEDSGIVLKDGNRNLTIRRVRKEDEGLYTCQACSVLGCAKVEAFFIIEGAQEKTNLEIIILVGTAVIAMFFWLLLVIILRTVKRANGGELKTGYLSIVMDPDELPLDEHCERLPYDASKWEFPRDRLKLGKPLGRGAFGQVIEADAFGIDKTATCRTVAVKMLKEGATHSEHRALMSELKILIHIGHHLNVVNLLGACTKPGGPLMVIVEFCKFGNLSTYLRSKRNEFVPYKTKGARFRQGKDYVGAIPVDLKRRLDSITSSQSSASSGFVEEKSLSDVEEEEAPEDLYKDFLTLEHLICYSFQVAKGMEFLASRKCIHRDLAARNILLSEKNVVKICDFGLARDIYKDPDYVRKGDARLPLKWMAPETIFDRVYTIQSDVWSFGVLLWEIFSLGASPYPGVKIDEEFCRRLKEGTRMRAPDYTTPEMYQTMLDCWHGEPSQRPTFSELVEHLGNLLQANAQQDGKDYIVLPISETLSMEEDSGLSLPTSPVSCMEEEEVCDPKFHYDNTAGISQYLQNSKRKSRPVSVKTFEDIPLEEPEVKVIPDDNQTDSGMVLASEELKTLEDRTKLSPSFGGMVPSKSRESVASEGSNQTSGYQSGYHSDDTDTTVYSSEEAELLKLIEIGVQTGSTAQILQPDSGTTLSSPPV

SMILES | GI50 [1] [µM] | GI50 [2] [nM] | GI50 [3] [µM] | GI50 [4] [µM] | IC50 [5] [nM] | inhibition [6] [%] | inhibition [7] [%] | inhibition [8] [%] | inhibition [9] [%] | inhibition [10] [%]
c1ccc(CNc2ncc3c(n2)-c2cccnc2SC3)cc1 | 14.8 | 9650 | 11.4 | 13.8 | – | – | – | – | – | –
COc1cc(CNc2ncc3c(n2)-c2cccnc2SC3)cc(OC)c1OC | 7.92 | 1570 | 2.73 | 5.4 | – | – | – | – | – | –
Clc1ccc(CNc2ncc3c(n2)-c2cccnc2SC3)cc1 | 14.3 | 5420 | 8.38 | 7.87 | – | – | – | – | – | –
COc1cccc(Nc2ncc3c(n2)-c2cccnc2SC3)c1 | 0.39 | 780 | 1.57 | 1.08 | – | – | – | – | – | –
COc1ccc(-c2ncc3c(n2)-c2cccnc2SC3)cc1 | > 20 | > 20000 | > 20 | > 20 | – | – | – | – | – | –
COc1ccc(Nc2ncc3c(n2)-c2cccnc2SC3)cc1 | 0.11 | 84 | 0.12 | 0.13 | 520 | 0 | 100 | 98 | 89 | 57
Fc1cccc(Nc2ncc3c(n2)-c2cccnc2SC3)c1 | 0.28 | 1100 | 1.23 | 0.73 | – | – | – | – | – | –
CN(c1ccccc1)c1ncc2c(n1)-c1cccnc1SC2 | 16 | > 20000 | 13 | 18.1 | – | – | – | – | – | –
Clc1cccc(Nc2ncc3c(n2)-c2cccnc2SC3)c1 | 4.39 | 8300 | 9.4 | 6.67 | – | – | – | – | – | –
COc1ccc(CNc2ncc3c(n2)-c2cccnc2SC3)cc1OC | > 20 | 9830 | 8.93 | 5.73 | – | – | – | – | – | –
Clc1cccc(CNc2ncc3c(n2)-c2cccnc2SC3)c1 | 5.55 | 450 | 4.76 | 8.6 | – | – | – | – | – | –
Brc1cccc(CNc2ncc3c(n2)-c2cccnc2SC3)c1 | 0.35 | 470 | 3.4 | 0.78 | – | – | – | – | – | –
COc1ccc(Nc2ncc3c(n2)-c2cccnc2SC3)cc1OC | 1.93 | 540 | 0.67 | 0.66 | 190 | 56 | 98 | 97 | 79 | 97
COc1cc(Nc2ncc3c(n2)-c2cccnc2SC3)cc(OC)c1OC | 1.3 | 1850 | 0.75 | 1.3 | – | 72 | 91 | 93 | 82 | 99
Clc1ccc(-c2ncc3c(n2)-c2cccnc2SC3)cc1 | 10.2 | 16000 | 5.83 | 11.6 | – | – | – | – | – | –
FC(F)(F)c1cccc(Nc2ncc3c(n2)-c2cccnc2SC3)c1 | 4.95 | 830 | 3.98 | 1.13 | – | – | – | – | – | –
COc1cccc(CNc2ncc3c(n2)-c2cccnc2SC3)c1 | 1.46 | 450 | 3.63 | 9.5 | – | – | – | – | – | –
Brc1cccc(Nc2ncc3c(n2)-c2cccnc2SC3)c1 | 3.11 | 5100 | 9.06 | 4.03 | – | – | – | – | – | –
Clc1ccc(Nc2ncc3c(n2)-c2cccnc2SC3)cc1 | 2.55 | 2330 | 2.29 | 2.52 | – | – | – | – | – | –
c1ccc(Nc2ncc3c(n2)-c2cccnc2SC3)cc1 | 0.53 | 1250 | 0.95 | 0.93 | – | – | – | – | – | –
COc1ccc(CNc2ncc3c(n2)-c2cccnc2SC3)cc1 | 16.3 | 2710 | 9.34 | 8.63 | – | – | – | – | – | –
c1ccc(-c2ncc3c(n2)-c2cccnc2SC3)cc1 | 17.1 | > 20000 | > 20 | > 20 | – | – | – | – | – | –
Cc1cc(C)c(/C=C2\C(=O)Nc3ccccc32)[nH]1 [SEMAXANIB] | – | 38000 | 37 | 27 | – | – | – | – | – | –
